Test results: article PMC6212790
This is one part of the list. At the low end of the ranking the order means little.

Each sequence was assayed against T1, GST-Rok-C97-191 (UniProt O34857) (assay: protein binding microarray). Conditions: Rok is a gene silencer of Bacillus subtilis; high values mean tight binding; most listed sequences are background and not binding sites; double strand, one strand shown.
T1 sequence: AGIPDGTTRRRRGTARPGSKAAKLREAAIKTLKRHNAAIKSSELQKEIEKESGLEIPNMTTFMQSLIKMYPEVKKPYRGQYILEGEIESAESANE
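Further: rank score from −0.5 (least bound) to 0.5 (best bound).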

| Sequence | binding signal |
| --- | --- |
| AAGATAAT | 0.339 E-score |
| AATGCCCG | -0.137 E-score |
| GTACTTGA | 0.0955 E-score |
| GGGTCGGA | -0.324 E-score |
| CACCTTGC | -0.182 E-score |
| AGCATATC | 0.00915 E-score |
| GAGTCTCC | -0.12 E-score |
| GGAGATGA | -0.174 E-score |
| ACTAAAGA | 0.123 E-score |
| CAACTAAG | 0.1 E-score |
| AGGTAAAC | -0.0228 E-score |
| AAGTTCCG | 0.194 E-score |
| ACGTTCGA | -0.00306 E-score |
| CATTACAC | 0.079 E-score |
| GCTTAGAA | 0.1 E-score |
| ACTTCACA | 0.138 E-score |
| CGCAGATA | 0.00922 E-score |
| AGTAGAGC | -0.089 E-score |
| ACGGTACT | 0.157 E-score |
| GCACAGCA | -0.0762 E-score |
| CAGAGCTA | 0.0342 E-score |
| AGGTTGTG | -0.0885 E-score |
| CAGTTAGG | -0.041 E-score |
| AGTGATAC | 0.175 E-score |
| ATCCCGGC | -0.122 E-score |

| Sequence | binding signal |
| --- | --- |
| ACACAACC | -0.0277 E-score |
| CTTTTCAC | -0.0695 E-score |
| CCAACTTC | 0.08 E-score |
| GGTATACA | 0.15 E-score |
| CTAAAAGC | 0.0397 E-score |
| ACTTTGTG | 0.0777 E-score |
| CTGAACCC | -0.186 E-score |
| CGTCCTTA | 0.175 E-score |
| ACCTCGAA | 0.146 E-score |
| ATTACCGC | 0.0668 E-score |
| ATACGATC | 0.0636 E-score |
| GTGTAATA | 0.238 E-score |
| CTGCCAGC | -0.0803 E-score |
| GCATGCCC | -0.404 E-score |
| AACTGCGA | -0.017 E-score |
| AAAAGGAT | -0.0734 E-score |
| AGCGCAAC | 0.00289 E-score |
| GCCACGCA | -0.161 E-score |
| ATATGGTC | 0.108 E-score |
| CCTCCAGC | -0.101 E-score |
| GCTTTTAC | 0.229 E-score |
| AAGGTATC | 0.149 E-score |
| ATATTGGG | 0.116 E-score |
| AGCTCGAT | 0.0641 E-score |
| CCTTCGAA | -0.109 E-score |

| Sequence | binding signal |
| --- | --- |
| CACAGTAA | 0.129 E-score |
| GGGCGCCC | -0.281 E-score |
| CGATACGC | -0.112 E-score |
| CAGACTAA | -0.0795 E-score |
| CCTTTGCG | -0.172 E-score |
| AGAGCGGC | -0.256 E-score |
| ATGGTAAC | 0.23 E-score |
| AAACGGAT | -0.013 E-score |
| AGAACCAG | 0.000695 E-score |
| ACTCGTCT | -0.0669 E-score |
| TAAAGACA | -0.0751 E-score |
| GGCGTTTA | -0.0275 E-score |
| AACCTGAC | -0.14 E-score |
| CCGCTAAA | 0.121 E-score |
| CGTTTAAC | 0.0785 E-score |
| TCGATCGA | 0.0869 E-score |
| ACGCCCAG | -0.38 E-score |
| ATTTCCCA | 0.124 E-score |
| ACTTGTGC | 0.0311 E-score |
| AGCGTCAG | -0.106 E-score |
| AAGCACTA | 0.0569 E-score |
| CCCAGGGA | -0.0839 E-score |
| CAGTATGA | 0.176 E-score |
| CAAGCCTC | -0.0994 E-score |
| CCATCTAG | -0.0123 E-score |

| Sequence | binding signal |
| --- | --- |
| TCCAGCGA | -0.0104 E-score |
| GGACATAA | 0.208 E-score |
| AAAATTTT | 0.274 E-score |
| CTTGACGA | -0.14 E-score |
| ACAAAAAG | -0.0948 E-score |
| GGCCCGGA | -0.378 E-score |
| AAGTTCAT | 0.0467 E-score |
| AGTCAGTC | -0.151 E-score |
| GCTAGGCC | -0.146 E-score |
| CCATCCCC | -0.128 E-score |
| CACGCGTG | 0.0775 E-score |
| GCAGTCGA | -0.243 E-score |
| ACTAAAAT | 0.397 E-score |
| GCTTCGAA | -0.168 E-score |
| CAATCTAG | 0.206 E-score |
| ATAACGCG | 0.181 E-score |
| TCATTTCA | -0.0244 E-score |
| AGCACAAC | -0.114 E-score |
| CAATCCCA | -0.0402 E-score |
| CAATTCAG | -0.0882 E-score |
| ATGGTCCC | -0.017 E-score |
| AGCATGCA | -0.131 E-score |
| GGTCGAAA | -0.26 E-score |
| CCGATAGG | 0.0855 E-score |
| AGGCTTAA | -0.183 E-score |

| Sequence | binding signal |
| --- | --- |
| CTGATGAA | -0.0901 E-score |
| CGATAATC | 0.189 E-score |
| TAACTCTA | 0.205 E-score |
| AACGTTTG | 0.0298 E-score |
| TCCAACAA | -0.0242 E-score |
| CCCCTTTC | -0.0869 E-score |
| ACTGCATA | 0.22 E-score |
| CAATTCGG | -0.0547 E-score |
| ATACTCGC | 4.42e-05 E-score |
| CTACAAAC | 0.114 E-score |
| TCTCTACA | 0.0572 E-score |
| GGATTGTA | 0.167 E-score |
| AAAACGTT | -0.0641 E-score |
| CTAGACGC | -0.0749 E-score |
| AAAAGTCC | 0.00591 E-score |
| AGGACCAA | -0.103 E-score |
| ACGCGTAG | 0.102 E-score |
| GGCTAACC | -0.244 E-score |
| ATAAAACA | 0.138 E-score |
| GAATTAGA | 0.0265 E-score |
| ACTGCGAC | -0.0467 E-score |
| ACTTCGGA | -0.0138 E-score |
| AGTCTAAG | 0.024 E-score |
| AGATTGGC | 0.165 E-score |
| TACGATCA | -0.136 E-score |

| Sequence | binding signal |
| --- | --- |
| ATTGTGAA | 0.0643 E-score |
| CCCTGGGA | -0.0444 E-score |
| GCGTTTCA | -0.0989 E-score |
| CTTCTTAA | -0.0285 E-score |
| ATGCGAGA | 0.00891 E-score |
| GAATCCAC | -0.046 E-score |
| AACTTACT | 0.236 E-score |
| AATCTATC | 0.421 E-score |
| ACTACTTC | 0.226 E-score |
| TACCTAGA | 0.145 E-score |
| AGGGATGA | 0.0346 E-score |
| ATCGCCCA | 0.00559 E-score |
| ACGAGCCA | -0.162 E-score |
| AACGTCAT | -0.044 E-score |
| AAGAGAAC | 0.125 E-score |
| GCCCAACA | -0.053 E-score |
| TACCAGAA | 0.135 E-score |
| AAGATCCG | -0.129 E-score |
| GGGAGATA | 0.0932 E-score |
| CAAATTGC | -0.00386 E-score |
| CAGACTGC | -0.217 E-score |
| AGGATTGC | 0.0187 E-score |
| ATATCTTA | 0.26 E-score |
| AGATCATG | 0.0411 E-score |
| AAGGACAC | -0.233 E-score |

| Sequence | binding signal |
| --- | --- |
| TTACGGAA | 0.14 E-score |
| CTACTACA | 0.366 E-score |
| CGCTGCCC | -0.208 E-score |
| GGATTACA | 0.142 E-score |
| GAGATAAA | 0.0507 E-score |
| CTCGAGCC | -0.244 E-score |
| TACACATA | 0.203 E-score |
| ACCCGGAT | -0.0978 E-score |
| CGATGGAC | -0.0374 E-score |
| GGATCAGA | -0.131 E-score |
| AATTGGGT | 0.148 E-score |
| GCATATCC | -0.0417 E-score |
| ATGCGCGC | 0.0372 E-score |
| ACCCAAGC | -0.11 E-score |
| CACCCAAC | 0.035 E-score |
| CCCAATCC | -0.254 E-score |
| CACAACGA | 0.0338 E-score |
| AGACAGTC | -0.217 E-score |
| ATTAGGCG | 0.0159 E-score |
| ATTAAACC | -0.0504 E-score |
| CAGCTGGC | -0.142 E-score |
| CTACAGTC | 0.164 E-score |
